This note sets out measurements from ChEMBL document CHEMBL4888484, “Replenishing the malaria drug discovery pipeline: Screening and hit evaluation of the MMV Hit Generation Library 1 (HGL1) against asexual blood stage Plasmodium falciparum ,using a nano luciferase reporter read-out” (2022).

Screen size: about 150,000 compounds; about 540 (0.36%) showed an effect of 50% or more. Some of the results follow.

The experiment deals with Plasmodium falciparum. Kind of experiment: Primary screen in NF54 nanoGlo assay, in single point, at 2uM, 72h; a lower Z score goes with more inhibition. It counts as functional, Erythrocyte. The note with it: timepoint 72 hour.
Regarding `O[C@@H](CN1CCCCCC1)c1ccccc1`, the “% Inhibition” value stood at 24% and the Z score was -2.71.
Taken in the same sequence, the figures for `O=C(Cn1ncc2c1C[C@@H](O)CC2)N1CCN(c2ccccc2F)CC1` were 9% and -1.22.
Regarding `CCC(=O)N1CCc2cc(-c3ccc(C(=O)N4CCN(Cc5ccccc5)CC4)cc3)ccc21`, the “% Inhibition” value came to 0% and the Z score was -0.03.
Taken in the same sequence, the figures for `CN(C)CC1CCc2ccccc2N1C(=O)C1CC2CCCC(C1)C2=O` (stereo not drawn) were -5% and 0.66.
Consider `Cc1cc(CC(=O)N[C@@](C)(CC(C)C)c2cccc(Br)c2)no1`, for which the “% Inhibition” value is 2% and the Z score is reported as -0.19.
`COc1ccccc1N(C)CC(=O)Nc1nc(C)c(C)s1`: the “% Inhibition” value is reported as 3% and the Z score is -0.58.
Take `Cc1cccc(-c2noc(CS(=O)(=O)c3ccc(Cl)s3)n2)c1`: the “% Inhibition” value was -11% and the Z score came to 0.95.
With `CN(C)c1cnc(C(=O)N2CCCC[C@H]2c2cnn(C)c2)cn1`, the “% Inhibition” value is 0% and the Z score is recorded as 0.07.
For `Cc1cc(S(=O)(=O)N[C@H](c2cccnc2)C2CC2)c(C)o1`, the “% Inhibition” value is on record as -4% and the Z score turned out to be 0.43.
With `CC1(C)C[C@H](N)CN(C(=O)OC(C)(C)C)C1`, the “% Inhibition” value is reported as -6% and the Z score was found to be 0.58.
On the same counts, the results for `O=C(N[C@@H](Cc1ccncc1)C1CC(O)C1)c1cnn(Cc2ccccc2)c1` (stereo partly drawn) are -21% and 2.11.
Taken in the same sequence, the figures for `COc1c(C)cc(S(=O)(=O)N[C@H]2CCOC[C@@H]2OC)c(C)c1C` were -13% and 2.38.
Take `O=C(c1cccc(Br)c1)N1CCN(c2ncc(F)cn2)C(=O)C1`: the “% Inhibition” value was determined as 12% and the Z score is -1.52.
For the compound `O=C1NC(c2ccc(-c3ccc(Cl)cc3Cl)o2)C(C(=O)c2ccc(F)cc2)C(O)(C(F)(F)F)N1` (stereo not drawn), the “% Inhibition” value is given as -9% and the Z score turned out to be 1.67.
With `O=C(c1cc(O)ncn1)N1CCN(Cc2ccccc2)CC1`, the “% Inhibition” value was -14% and the Z score is recorded as 2.42.
For `O=C(NCc1ccc2c(c1)CCN2C(=O)c1ccncc1)c1ccccc1F`, the “% Inhibition” value is recorded as -14% and the Z score was determined as 1.32.
On to `Cc1noc(NC(=O)c2cccc(NS(=O)(=O)c3ccc4c(c3)OCCO4)c2)n1`, for which the “% Inhibition” value is listed as -4% and the Z score was found to be 0.52.
With `C[C@H](Oc1ccc(N(C)C(N)=O)cc1)c1nc(-c2cccs2)no1`, the “% Inhibition” value was -2% and the Z score worked out at 0.3.
On the same counts, the results for `CCCCc1c(C)nc(N)nc1N1CCO[C@@H](CCO)C1` are -8% and 1.08.
In the case of `CC(COc1ccc(F)cc1)NC(C)c1cccnc1` (stereo not drawn), the “% Inhibition” value is 6% and the Z score is reported as -0.83.
`CC(C)C[C@@H]1N[C@H](C(=O)NCc2ccccc2)Cc2cn(Cc3ccncc3)c3cccc1c23`: the “% Inhibition” value was 0% and the Z score is 0.06.
Take `O=C(Nc1ccccc1F)[C@@H]1Oc2ccccc2NC1=O`: the “% Inhibition” value is given as -14% and the Z score is on record as 1.68.
For `CCOc1cccc(CN[C@@H](C)C2CCN(CC(F)(F)F)CC2)n1`, the “% Inhibition” value was -5% and the Z score came out at 0.79.
`Cc1nc(NC(=O)[C@@H]2CNC(=O)N2)sc1Cc1ccccc1F`: the “% Inhibition” value is -7% and the Z score was 0.61.
Taken in the same sequence, the figures for `c1ccc(-c2nc(-c3cn(-c4ccccc4)nc3-c3cccs3)[nH]c2-c2ccccc2)cc1` were -9% and 1.73.
Taken in the same sequence, the figures for `CC(C)Oc1nccnc1N[C@@H](C)Cn1ncc2ccccc2c1=O` were 7% and -0.68.
In the case of `Cc1noc(C)c1CCC(=O)N(Cc1cnn(C)c1)C(C)C`, the “% Inhibition” value is -15% and the Z score is 1.93.
On to `CCNC(=O)N1CCCCCNC(=O)[C@@H]2CCC[C@@H]21`, for which the “% Inhibition” value came to 0% and the Z score was 0.03.
Take `O=C(CCCC(=O)Nc1ccccn1)NCCc1ccc(Cl)cc1`: the “% Inhibition” value is on record as -6% and the Z score is given as 1.07.
Take `O=S(=O)(c1ccccc1)N1CCn2nc(CN3CCC[C@H](O)C3)cc2C1`: the “% Inhibition” value is 5% and the Z score is listed as -0.62.
As to `CC(C)C1CC(NCCN(C)C)CC(C(C)C)O1` (stereo not drawn), the “% Inhibition” value came to 12% and the Z score is reported as -1.59.
On to `O=C1CC[C@H](C(=O)NC2CC3CCC2C3)N1` (stereo partly drawn), for which the “% Inhibition” value was -8% and the Z score is reported as 1.12.
As for `CC(=O)Nc1ccc(S(=O)(=O)N2C[C@@H]3C[C@H](C2)c2c(-c4ccccc4)ccc(=O)n2C3)cc1`, the “% Inhibition” value was 1% and the Z score is reported as -0.09.
In the case of `CC(C)CCOC1CCN([C@@H](C)C(N)=O)CC1`, the “% Inhibition” value is -11% and the Z score stood at 1.03.
For the compound `Cc1cc(-c2cccc3c2CCNC3)ccc1C(=O)O`, the “% Inhibition” value was -14% and the Z score turned out to be 2.66.
Consider `C[C@H]1COc2ccc(C(=O)N3CCCC3)cc2CN1C(=O)CC1CCCCC1`, for which the “% Inhibition” value is recorded as -9% and the Z score is 1.59.
With `O=C(Nc1ccc2c(c1)CCC2)N1CCC[C@H](O)C1`, the “% Inhibition” value is -3% and the Z score is reported as 0.54.
In the case of `CC1c2cc(F)cc(F)c2CCN1C(=O)CC1COCCN1` (stereo not drawn), the “% Inhibition” value is -5% and the Z score was 0.59.
On the same counts, the results for `Cc1cnc(CNS(=O)(=O)Cc2ccc(Cl)cc2C#N)o1` are 30% and -3.43.
On to `COCc1cc(C(=O)NC2CCOC(CC(C)C)C2)no1` (stereo not drawn), for which the “% Inhibition” value is listed as -4% and the Z score is recorded as 0.39.
On the same counts, the results for `COCCN(Cc1nccs1)C(=O)Nc1cc(F)c2c(c1)NC(=O)CO2` are -15% and 1.55.
On the same counts, the results for `O=C(NC1CCCC1)c1cc(F)ccc1-n1ccnc1` are -3% and 0.3.
As to `CC1CCCC(NC(=O)C(=O)N2CCNC(=O)C2)CC1` (stereo not drawn), the “% Inhibition” value amounted to 2% and the Z score is -0.28.
On to `C[C@@H](Cc1nnc(NC(=O)Cc2ccc(Br)cc2)s1)c1ccccc1`, for which the “% Inhibition” value was -13% and the Z score was found to be 2.42.
As to `CCOC1CC(O)(CNC(=O)c2csnc2C)C1(C)C` (stereo not drawn), the “% Inhibition” value is -10% and the Z score is recorded as 1.8.
`O=c1c2cc(-c3ccccc3)nn2ccn1Cc1noc(CN2CCCCC2)n1`: the “% Inhibition” value was -1% and the Z score amounted to 0.13.
`COCC(=O)N1CCc2[nH]nc(C(=O)N3CCN(c4cccc(Cl)c4Cl)CC3)c2C1`: the “% Inhibition” value was found to be 8% and the Z score is -1.1.
On to `COc1cccc(CNC(=O)CCn2ccnc2)c1`, for which the “% Inhibition” value was found to be 8% and the Z score is given as -1.33.
In the case of `Cc1cnc(C)n1C[C@H]1CCN(C(=O)COCc2ccccc2)C1`, the “% Inhibition” value is -6% and the Z score came out at 0.75.
As for `Cc1ccc(C2(NS(=O)(=O)N3CCCC3)CC2)cc1`, the “% Inhibition” value is -4% and the Z score is 0.65.
Turning to `CCCn1cc(NCC(C)(C)S(C)(=O)=O)cn1`, the “% Inhibition” value is recorded as -1% and the Z score is recorded as 0.11.
Consider `COc1ccc(CNC(=O)[C@H](C)n2ccc3cc(S(=O)(=O)N4CCCC4)ccc32)cc1OC`, for which the “% Inhibition” value was 36% and the Z score was -5.17.
On to `CCCc1noc(CNC2(c3ccc(OC)cc3)CCOCC2)n1`, for which the “% Inhibition” value was -11% and the Z score is reported as 1.49.
`O=C(c1onc2c1CCCC2)N1CC[C@@]2(CCCN(CC3CCC3)C2=O)C1`: the “% Inhibition” value was -12% and the Z score is 2.26.

Broadly, the % Inhibition is the relative decrease from the control value, in per cent.
